According to publication PMC4336329 (PLoS ONE, 2015):
Out of some 310,000 compounds screened, about 14,000 (4.5%) showed an effect of 50% or more. Effects have a minus sign here. The list shows a part of the results.

target: human ether-à-go-go-related gene (hERG) potassium channel (human, UniProt Q12809); assay: primary screen, population patch clamp on CHO cells stably expressing hERG
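Further: peak tail current of the secondary pulse compared with the same well before compound.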

human ether-à-go-go-related gene (hERG) potassium channel, sequence (Q12809 whole entry, looked up): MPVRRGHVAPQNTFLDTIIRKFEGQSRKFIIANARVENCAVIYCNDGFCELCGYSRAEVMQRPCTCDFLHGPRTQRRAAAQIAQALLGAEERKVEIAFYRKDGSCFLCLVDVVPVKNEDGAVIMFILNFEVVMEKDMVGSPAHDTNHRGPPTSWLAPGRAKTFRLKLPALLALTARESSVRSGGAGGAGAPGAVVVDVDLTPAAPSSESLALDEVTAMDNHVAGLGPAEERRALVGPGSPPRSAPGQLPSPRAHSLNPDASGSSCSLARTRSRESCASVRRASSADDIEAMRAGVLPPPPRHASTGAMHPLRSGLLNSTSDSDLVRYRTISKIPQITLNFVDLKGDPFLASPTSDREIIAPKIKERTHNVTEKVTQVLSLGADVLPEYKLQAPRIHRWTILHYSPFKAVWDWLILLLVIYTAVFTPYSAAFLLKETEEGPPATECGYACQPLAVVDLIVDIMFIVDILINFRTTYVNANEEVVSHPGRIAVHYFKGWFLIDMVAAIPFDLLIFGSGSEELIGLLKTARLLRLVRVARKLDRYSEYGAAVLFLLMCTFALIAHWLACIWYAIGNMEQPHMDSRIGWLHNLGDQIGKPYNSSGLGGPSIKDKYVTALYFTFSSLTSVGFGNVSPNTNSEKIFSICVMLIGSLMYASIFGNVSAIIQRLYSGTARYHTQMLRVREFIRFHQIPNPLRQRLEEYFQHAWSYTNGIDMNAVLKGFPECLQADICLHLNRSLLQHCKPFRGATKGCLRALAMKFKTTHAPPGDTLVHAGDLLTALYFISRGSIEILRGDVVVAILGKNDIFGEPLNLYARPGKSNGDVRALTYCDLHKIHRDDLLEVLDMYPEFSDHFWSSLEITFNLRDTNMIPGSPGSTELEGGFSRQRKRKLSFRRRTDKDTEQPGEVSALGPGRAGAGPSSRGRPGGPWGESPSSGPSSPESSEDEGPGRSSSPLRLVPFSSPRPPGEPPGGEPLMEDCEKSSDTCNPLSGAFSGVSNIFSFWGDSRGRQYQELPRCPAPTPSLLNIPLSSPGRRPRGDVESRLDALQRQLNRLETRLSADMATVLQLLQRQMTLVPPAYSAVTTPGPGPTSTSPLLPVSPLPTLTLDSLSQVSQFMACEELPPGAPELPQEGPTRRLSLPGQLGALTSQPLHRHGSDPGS

| SMILES | hERG current change (%, negative = inhibition) at 10uM [%] |
| --- | --- |
| CCCCC(C(=O)NC1CCCC1)N(C(=O)c1snc(C(N)=O)c1N)c1ccc(F)cc1 (centres unmarked) | 0.15 |
| O=[N+]([O-])c1ccccc1/C=C/CN1CCCCC1CO (centres unmarked) | 5.49 |
| Cc1ccccc1N1CCN(C2CCCN(C(=O)c3cn4c(C)cccc4n3)C2)CC1 (centres unmarked) | -58.1 |
| CCN(CC)c1ccc([N+](=O)[O-])c2cccnc12 | -11 |
| Cc1ccccc1NC(=O)CSc1nc(N)c(C#N)cc1C#N | 0.675 |
| O=C(O)CSc1ccc(S(=O)(=O)N2CCCC2)cn1 | -1.86 |
| CCOC(=O)/C(C#N)=C/c1c(N2CCN(CC)CC2)nc2c(C)cccn2c1=O | -24.1 |
| O=C(c1cccs1)c1no[n+]([O-])c1C(=O)c1cccs1 | -25.8 |
| Cc1sc2ncnc(OCC(=O)NCc3cccs3)c2c1C | 6.03 |
| Cc1ccccc1C(=O)c1cccn1CC(=O)NCc1ccccc1 | 21.7 |
| CCC(CCC(=O)Nc1cccc(C(=O)O)c1)C(=O)O (centres unmarked) | 9.97 |
| COC(=O)c1cn(Cc2cccc(C)c2)nn1 | -7.11 |
| CNC(=O)C(=O)NCC(c1cccs1)S(=O)(=O)c1ccc(C)cc1 (centres unmarked) | 12.8 |
| COc1ccc(-c2nnc(NC(=O)c3c(OC)cccc3OC)s2)cc1 | 19.8 |
| Nc1c(C(=O)CSc2nnc(N3CCOCC3)n2-c2cccc(F)c2)c(=O)[nH]c(=O)n1C1CC1 | 18.2 |
| CCOC(=O)c1c(COc2ccccc2)oc2ccc(O)cc12 | -10.7 |
| COc1cc(CCNC(=O)CCCn2c(=O)c3cccn3c3cccnc32)cc(OC)c1OC | -12.7 |
| CCOc1ccc(CCNC(=O)CN2CCN(Cc3ccc(F)cc3)C2=O)cc1OCC | 1.53 |
| CCCOC(=O)c1ccc(NC(=O)c2ccccc2[N+](=O)[O-])cc1 | -2.89 |
| O=C(Cn1nc(-c2ccccc2)ccc1=O)Nc1ccc(NC(=O)c2ccccn2)cc1 | 6.1 |
| Cc1ccc(C)c(S(=O)(=O)N2CCN(C(=O)CCc3nc4ccccc4c(=O)[nH]3)CC2)c1 | -47.1 |
| CC(Oc1ccccc1)C(=O)OCC(=O)Nc1sccc1C(N)=O (centres unmarked) | -17.2 |
| CC1CC1C(=O)Nc1nc(-c2ccc(Cl)s2)cs1 (centres unmarked) | 24.9 |

| SMILES | hERG current change (%, negative = inhibition) at 10uM [%] |
| --- | --- |
| COc1ccc(C(C(=O)NC2CCCCC2)N(C(=O)c2cccs2)c2ccc3c(c2)OCO3)cc1 (centres unmarked) | 14.2 |
| CC(C)CN(Cc1cc(=O)oc2cc(-c3ccccc3)c(O)cc12)CC(C)C | 50 |
| O=C1Nc2ccccc2/C1=N/c1sc2c(c1C(=O)NCCc1ccccc1)CCCC2 | 0.909 |
| COc1ccccc1CNN.Cl | 28.2 |
| Cc1ccccc1C(=O)Nc1ccc(Cl)cn1 | 6 |
| O=C(COC(=O)c1cc[n+]([O-])cc1)Nc1ccc(SC(F)F)cc1 | -18.7 |
| CCCCOc1ccc(/C=C2/Sc3ccccc3C2=O)cc1 | 9.77 |
| CC(C)(Oc1ccc(Cl)cc1)C(=O)NC1CCN(Cc2ccccc2)CC1 | -70.4 |
| CCn1c(SCc2nc3ccccc3nc2C)nnc1-c1cccs1 | -12.3 |
| Cc1cccc(NS(=O)(=O)c2cccc(C(=O)N3CCN(c4ccccn4)CC3)c2)c1 | -22.7 |
| COc1ccc(-c2cc(NC(=O)c3cncn3-c3ccccc3)ccc2OC)cc1 | 5.97 |
| CCOc1cc(NC(=O)C2CCCCC2)c(OCC)cc1NC(=O)c1ccccn1 | 15.5 |
| CCOC(=O)c1ccc(S(=O)(=O)N2CCC(C(=O)NCC3CCCCC3)CC2)cc1 | -0.177 |
| Cc1cc(N2CCCC2)ccc1NC(=O)CN1C(=O)NC2(CCCCC2)C1=O | -15.1 |
| Cn1c(Oc2ccccc2NCc2cc(Br)ccc2O)cc(=O)n(C)c1=O | 4.67 |
| CCN(CC)S(=O)(=O)c1ccc(N/N=C(\C)c2ccncc2)c([N+](=O)[O-])c1 | 13 |
| Cc1nnc(Oc2ccccc2F)c2ccccc12 | 2.82 |
| Cc1[nH]ccc(=O)c1Cc1c(Cl)cccc1Cl | -14.6 |
| Cc1ccc(S(=O)(=O)N2CCN(Cc3cc4c(cc3Br)OCCO4)CC2)cc1 | 10.6 |
| CCOc1ccc(N/C(C)=C/C(=O)c2ccc3c(c2)OCCO3)cc1 | 9.27 |
| C/C(=N/NC(=O)c1ccc(Cl)s1)c1cccnc1 | -20.2 |
| CN(CC(=O)Nc1ccccc1Cl)C(=O)COC(=O)CSc1ccc(Cl)cc1 | 5.61 |
| COc1ccc(/C=N/n2cnc3c([nH]c4ccccc43)c2=O)cc1COc1ccccn1 | -8.67 |

| SMILES | hERG current change (%, negative = inhibition) at 10uM [%] |
| --- | --- |
| N/C(=N\OC(=O)c1ccncc1)c1cccc([N+](=O)[O-])c1 | -8.06 |
| Cc1cc(C)c2c(CN3CCN(Cc4ccccc4)CC3)cc(=O)oc2c1C.Cl | -40.8 |
| Cc1ccc(C(=O)CCC(=O)Nc2cc(C)ccn2)cc1 | 1.08 |
| O=C(CCCOc1ccc(Cl)cc1)Nc1ccc(N2CCOCC2)cc1 | 4.66 |
| Cc1cc(C)n(-c2nc3ccccc3nc2Nc2ccc3[nH]c(=O)[nH]c3c2)n1 | 2.92 |
| CCN(CCCNC(=O)CCc1nc(-c2ccc(C)cc2)no1)c1cccc(C)c1 | 4.97 |
| Cc1sc(NC(=O)CSc2nnc(COc3ccc(Cl)cc3)n2C)c(C#N)c1C | -9.16 |
| c1ccc(CNc2ccc3ccccc3n2)nc1 | -27.5 |
| Cn1ccnc1C1CCCCN1C(=O)c1cc(COc2ccc(F)cc2Cl)on1 (centres unmarked) | -24.1 |
| Nc1nnn(CC(=O)N/N=C/c2ccccc2Cl)n1 | 15.5 |
| c1ccc(-c2noc(-c3ccc4c(c3)OCO4)n2)nc1 | 12.2 |
| Cc1ccc(C2OC34CCCCCC3C(C#N)(C(=N)O4)C2(C#N)C#N)cc1 (centres unmarked) | 14 |
| O=C(NCCc1ccc2c(c1)OCCO2)c1cc2ccccc2o1 | -35.7 |
| S=C(NCCc1ccccn1)NC1CCCCC1 | 14.7 |
| Cc1ccc(CNc2ccc(N3CCOCC3)c(C(=O)O)c2)s1 | -23.4 |
| Cc1ccc(S(=O)(=O)/N=C/c2ccco2)cc1 | 13.8 |
| CCn1cc(C(=O)NCCCOC)c(=O)c2cc(S(=O)(=O)N(C)C)ccc21 | 14.3 |
| COc1ccc(/C=C2/SC(=O)N(CCNC(=O)C3CCCN3C(=O)c3cccs3)C2=O)cc1 (centres unmarked) | -22.8 |
| CCCCOC(=O)N/N=C/C=C/c1ccccc1 | -9.28 |
| Cn1c(SCC(=O)NC2CCCCCC2)nnc1-c1ccco1 | -9.27 |
| CC(C)OCCCNC(=O)CCSc1ccc(Cl)cc1 | -4.12 |
| O=C(Cn1c(=O)n(-c2ccc(F)cc2)c(=O)c2sccc21)c1ccccc1 | -20.5 |
| N#Cc1c(-c2ccccc2)cc(-c2ccc3c(c2)OCO3)[nH]c1=O | 7.02 |

| SMILES | hERG current change (%, negative = inhibition) at 10uM [%] |
| --- | --- |
| CCOC(=O)C1CCCN(C(=O)CCn2nnnc2CN2CCOCC2)C1 (centres unmarked) | 18.4 |
| CCC(C)n1c(=N)c(C#N)cc2c(=O)n3ccccc3nc21 (centres unmarked) | -40.9 |
| COC(=O)Cc1ccc2sc(-c3ccccc3)nc2c1 | 4.39 |
| CCOc1ccc(CNc2ncnc(N)n2)cc1 | -1.99 |
| CC1(C)CC2c3cccc(C(=O)O)c3C(=O)N2c2c1ccc1ccccc21 (centres unmarked) | 8.94 |
| COC(=O)[C@@]1(Cc2ccc(F)cc2)[C@H]2c3cc(C(=O)N(C)C)n(Cc4c(CO)[nH]cc(C)c4=O)c3C[C@H]2CN1C(=O)c1ccccc1 | 11.9 |
| Cc1cccc(OCCCC(=O)Nc2ccc(S(=O)(=O)Nc3onc(C)c3C)cc2)c1C | 13 |
| CCn1nc(NS(=O)(=O)c2ccccc2)c2cc3cccc(C)c3nc21 | 6.7 |
| COc1ccc(Nc2c(-c3ccc(OC)cc3)nc3cnccn23)cc1 | -27.6 |
| COC(=O)/C(C#N)=C/c1c(N2CCN(c3ccccc3)CC2)nc2ccccn2c1=O | -33.9 |
| COC(=O)c1ccc(COc2ncnc3ccccc23)o1 | 15.4 |
| Cc1c(C(=O)OC(C)C)sc(NC(=O)C2CCCO2)c1C(=O)OC(C)C (centres unmarked) | 2.16 |
| O=C(c1cccs1)N1CCCC(c2nc3c(nnn3Cc3ccc(F)cc3)c(=O)[nH]2)C1 (centres unmarked) | 17.8 |
| CC1(C)CC(=O)C=C(Nc2ccc(Br)cn2)C1 | 8.81 |
| CN(C)C(=O)Oc1noc2cc(Cl)ccc12 | -4.47 |
| O=C(Cn1nc(C(F)(F)F)c2c1CCCC2)NCc1ccco1 | -12.1 |
| CCc1nnc(NC(=O)CSc2nnc(-c3ccco3)o2)s1 | 12.1 |
| COc1ccc(S(=O)(=O)N2CCN(Cc3ccco3)CC2)cc1.O=C(O)C(=O)O | 13.9 |
| Cc1c(C(=O)OC2CCC(C)CC2)[nH]c2c1C(=O)CCC2 (centres unmarked) | -3.25 |
| COc1cccc(NS(=O)(=O)c2ccc(S(=O)(=O)N3CCOCC3)cc2)c1 | -7.99 |
